Reference: PubChem BioAssay AID1508624 (National Center for Advancing Translational Sciences (NCATS), 2021)
The campaign covered roughly 48,000 compounds. About 120 (0.25%) were called active. Inconclusive results (about 4%) are left out. Calls come from the whole dose curve; as a rule, active = well fitted activation curve with a large enough effect; inconclusive = small, poorly fitted or top-dose-only effect, or another doubt; inactive = no such curve, though single readings can be large or run the other way. The list shows a part of the results.

Test: Primary qHTS for Identification of Small Molecule Activators of Huntingtin-Antisense Promoter Activity; note: nearly all actives have a fitted effect of over 55% in size
Conditions: HEK293 HTT-AS promoter firefly luciferase reporter, 24 h; series mostly up to 57.5 µM; activity change, positive = activation: at the top concentration
Summary of the method: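 Quantitative HTS used concentration series of up to 57.5 uM final on HEK293 luciferase reporter cells, 24 h at 37 degrees C. Readout was Dual-Glo firefly luminescence.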

Activity change, positive = activation, inactive:
CC(C)(C)[N+]([O-])=Cc1ccc(S(=O)(=O)O)cc1S(=O)(=O)O -5.51%
Cn1nnnc1SCCCNCc1ccc(-c2ccc(Br)cc2)o1 -22.7%
CCCCCn1c(=O)[nH]c2cc(C(=O)Nc3cc(OC)cc(OC)c3)ccc2c1=O -32.9%
Cc1ccc2oc(=O)c3cc(C(=O)N4CCN(c5ccccc5)CC4)sc3c2c1 -6.13%
CN(C)S(=O)(=O)c1ccc2c(c1)N(CC(=O)NCc1ccccc1)C(=O)C1CCCCN21 (stereo not drawn) -6.58%
O=C(O)Cc1ccc(CCNS(=O)(=O)c2ccc(Cl)cc2)cc1 -10.6%
CCCCCNC(=O)c1c[nH]c2ccc(S(=O)(=O)N3CCC(C)CC3)cc2c1=O -6.35%
CCC1CN(C(=O)NCc2ccc(C)cc2)c2cc(C)ccc2O1 (stereo not drawn) -19.2%
Cc1nn(S(=O)(=O)c2ccc(C(C)C)cc2)c(C)c1S(=O)(=O)N1CCCCCC1 -6.7%
Cc1ccc(NC(=O)CSc2nc3ccccc3nc2Cc2ccccc2F)cc1F -18.2%
CCCCOc1ccc(OC(=O)c2sc3ncn(Cc4cccc(F)c4)c(=O)c3c2C)cc1 -4.49%
COc1cc2nc(SCc3ccc(Cl)cc3)n3nc(CCn4nc(C)cc4C)nc3c2cc1OC -7.78%
CC(=O)c1sc2c(c1C)c(=O)n(-c1ccc(Cl)cc1)c(=O)n2Cc1cc(=O)n2cc(Cl)ccc2n1 14.3%
Cc1nn(C(=O)c2ccc(Cl)cc2)c(C)c1Sc1ccc(Cl)cc1 -8.14%
NC(=O)c1nnn(Cc2cc(Cl)c(C(=O)c3ccc(Cl)cc3)c(Cl)c2)c1N -7.47%
Cc1cc(NC(=O)CSc2nc(-c3ccccc3F)nc3c2c(=O)n(C)c(=O)n3C)no1 -3.88%
CCCSc1nc2sc3c(c2c(=O)n1-c1ccccc1)CCC(C)C3 (stereo not drawn) 0.981%
COc1ccc(-c2oc3ncn4nc(-c5cccc(C)c5)nc4c3c2-c2ccc(OC)cc2)cc1 -13.7%
COc1cc(C(=O)Nc2nnc(S(=O)(=O)N(C)c3ccccc3)s2)cc(OC)c1OC -28%
Cc1ccc(CN2C(=O)c3ccccc3Sc3ccc(C(=O)NC4CCCCC4)cc32)cc1 -31.2%
COc1cc(C(=O)NCC(c2ccc(N(C)C)cc2)N2CCc3ccccc32)cc(OC)c1OC (stereo not drawn) -27.1%
Cc1ccc(-c2nc3n(n2)C(c2ccccc2C)C=C(c2ccc(Cl)cc2)N3)cc1 (stereo not drawn) -27.5%
COc1ccccc1CNC(=O)CS(=O)(=O)c1cccc2nsnc12 -3.89%
COc1ccc(CCNC(=O)c2cc(-c3ccc(C)cc3)nc3n[nH]c(-c4ccccc4)c23)cc1OC -9.87%
COc1ccc(OC)c(NC(=O)CCn2cnnn2)c1 -13.1%
COc1ccc(CNC(=O)c2cc3c(=O)[nH]c4ccc(C)cc4c3s2)c(OC)c1 -2.89%
O=C(CSc1ncc(CO)n1Cc1ccccc1)Nc1nc2ccccc2s1 -41.3%
Cc1ccn2c(Nc3ccc(F)cc3)c(-c3ccc(C)o3)nc2c1 -5.9%
O=C(NC1CC(=O)N(c2ccc(F)cc2)C1)c1cccs1 (stereo not drawn) -7.05%
COC(=O)[C@@H]1CC2=CC(=O)CC[C@]2(C)[C@@]23O[C@@H]2C[C@@]2(C)[C@@H](CC[C@@]24CCC(=O)O4)[C@H]13 -1.06%
CC(C)OC(=O)C1=CN(C(=O)c2ccc(F)c(F)c2)CC(C)(C)c2c1[nH]c1ccccc21 -3.97%
COc1ccc(CNC(=O)C2CCN(c3nc4ccccc4[nH]3)CC2)c(OC)c1 -6.52%
CN1CCN(C(c2ccccc2)c2ccccc2)CC1 -11.2%
COc1cc(CN(C(=O)COc2ccc(Br)cc2)c2ccccn2)cc(OC)c1OC -34.3%
CCOC(=O)c1ccc(NC(=O)CN2C(=O)C(C)(C)c3ccccc32)cc1 -34.4%
Cc1ccc(C)c(NC(=O)c2cnn(-c3ccc(F)cc3F)c2C2CCNCC2)c1 -6.98%
CC[C@H](CO)Nc1nc(NCc2ccccc2)c2ncn(C(C)C)c2n1 -9.59%
CCCC12CN3CC(CCC)(CN(C1)C3c1ccc(OCc3ccccc3)cc1)C2=O (stereo not drawn) 1.39%
Cc1cccc(C)c1NC(=O)CCSc1nc(-c2ccc3c(c2)OCO3)cc(C(F)(F)F)n1 -10.3%
Cc1ccc(Nc2ccc(N3CCN(C(=O)c4cccc([N+](=O)[O-])c4)CC3)nn2)cc1 -5.34%
COc1ccccc1NC(=O)CN(C)S(=O)(=O)c1cccc2cccnc12 -13%
O=C(CSc1ncc2c(n1)-c1ccccc1N(Cc1ccc(Cl)cc1)S2(=O)=O)c1ccc(Cl)cc1 -3.1%
Cc1cc(O)c(C(c2ccccc2)N2CCC(C)CC2)c(=O)n1Cc1ccco1 (stereo not drawn) -11.7%
CCN(C(=O)c1sc2nc3n(c(=O)c2c1C)CCCC3)c1ccccc1F -2.54%
CC(=O)c1ccc(NC(=O)CSc2nnc3ccc(-c4ccc(F)cc4)nn23)cc1 9.55%
Cc1ccc(CCNC(=O)c2cc(-c3ccccc3)n[nH]2)cc1 -20.2%
CCC1=C(c2ccc(C)cc2)S(=O)(=O)N=C1N1CCC(C(=O)Nc2ccccc2C(=O)OC)CC1 -33.2%
COc1ccc(CNC(=O)CCc2c(C)nn(-c3ccc(N4CCOCC4)nn3)c2C)c(OC)c1 -13.6%
Cc1cn2c(=O)cc(COc3ccc(NC(=O)c4ccc(C(C)(C)C)cc4)cc3)nc2s1 -2.56%
CN(C)c1ccc(C(CNC(=O)c2ccc(C(C)(C)C)cc2)N2CCCC2)cc1 (stereo not drawn) -17.1%
Cc1cccc(NC(=O)C2CCCN2S(=O)(=O)c2cccc3nsnc23)c1C (stereo not drawn) -19.5% [at 11.5 µM, percent change from vehicle, -100% = no light]
COc1ccc(-n2nc(C(=O)NCCc3ccc(Cl)cc3)c3c4ccccc4n(C)c3c2=O)cc1 3.86%
Cc1ccc(NC(=O)Cn2c(=O)n(CCC(=O)N3CCc4ccccc4C3)c(=O)c3ccccc32)c(C)c1 -24.4%
COc1ccc(C2c3c(-c4ccccc4)n[nH]c3C(=O)N2c2ccc(C(=O)O)cc2)c(OC)c1 (stereo not drawn) -15%
COc1cc(NC(=O)Cn2c(-c3ccccc3)cc(C(C)=O)c2C)cc(OC)c1 -13.6%
Cc1ccc(-c2cnc(C3CC3)o2)cc1S(=O)(=O)Nc1cccc(C#N)c1 -60.8%
COC(=O)c1ccc2c(c1)sc(=NC(=O)c1ccc(S(=O)(=O)N3CCCCC3)cc1)n2C 0.392%
CN(Cc1ccccc1)C(=O)CSc1c2c(nc3ccc(Cl)cc13)CCCC2 -48.2%
Cc1ccc(-c2c(CN3CCN(c4cccc(C)c4C)CC3)csc2C)cc1 -17.8%
Cc1ccc(NC(=O)c2cccc(C(C)(C)C#N)c2)cc1Nc1ccc2ncn(C)c(=O)c2c1 -30.9%
O=C(COc1ccc(F)cc1)Nc1ccc(OCc2cc(=O)n3ccsc3n2)cc1 -2.65%
Cc1ccc(CNC(=O)CN2Cc3ccccc3C2=O)cc1 6.48%
Cc1ccccc1NC(=O)Cn1c(=O)n(CCC(=O)N2CCc3ccccc3C2)c(=O)c2ccccc21 -12.1%
CCC1CN(C(=O)N2CCC(C(=O)NCCCc3ccccc3)CC2)c2cc(C)ccc2O1 (stereo not drawn) -42%
COc1ccc(NS(=O)(=O)c2cc(-c3onc(C)c3C)ccc2C)c(OC)c1 -41.2%
COc1ccc(NC(=O)CCS(=O)(=O)c2cc3c(cc2C)NC(=O)CO3)cc1Cl -7.56%
CCCc1cnc2c(c1SCC(=O)Nc1ccc([N+](=O)[O-])cc1)c(=O)n(C)c(=O)n2C -19.6%
Cc1ccc(Cl)cc1NC(=O)c1sc2nc(C)c(C)c(C)c2c1N 21.7%
CCOC(=O)c1ccccc1NC(=O)N(Cc1ccc(CC)cc1)Cc1cn[nH]c1-c1ccc(OC)cc1 -11.7%
N#Cc1ccccc1Cn1c(SCC(=O)NCc2ccccc2)nc2ccccc21 -11.7%
CCOc1ccc(CCNC(=O)CSCc2nc(-c3cccc(C)c3)oc2C)cc1OCC -28.6%
CCc1cccc2c(-c3ccccc3)nc(SCC(=O)Nc3ccc(OC)cc3)nc12 -7.12%
CC1CCN(C(=O)Cn2c(=O)n(-c3ccc(Cl)cc3)c(=O)c3c4c(sc32)CCC4)CC1 -1.82%
C[N+](C)(C)CC(=O)O -10.2%
CCOc1ccc2nc(NC(=O)c3nc(SC(C)C)ncc3Cl)sc2c1 9.57%
O=C(Cn1c(=O)c2cccn2c2ccc(F)cc21)NCc1cccc(Cl)c1 -10.8%
O=C(O)c1ccccc1C(=O)Nc1ccc(S(=O)(=O)Nc2nccs2)cc1 -13.2%
CC(C)N(Cc1ccccc1)S(=O)(=O)c1ccc(N2CCCCS2(=O)=O)cc1 -15.3%
CN(C)S(=O)(=O)c1ccc(C(=O)N(Cc2cccnc2)c2nc3c(F)cc(F)cc3s2)cc1 -19.9%
CC(C)NC(=O)CCSc1nc(-c2ccc3c(c2)OCO3)cc(C(F)(F)F)n1 -40.9%
Cc1cccc(C)c1NC(=O)CSc1nc(-c2cccs2)cc(C(F)(F)F)n1 -12.3%
Cc1cn2c(=O)cc(COc3ccc(C(C)(C)C)cc3)nc2s1 -18%
CC(C)CCn1c(SCc2c(F)cccc2Cl)nc2ccsc2c1=O -7.18%
O=C(Nc1ccc(F)c(Cl)c1)C1CCCN(S(=O)(=O)c2cccc3nsnc23)C1 (stereo not drawn) -38.9%
CN(c1nccc(=O)[nH]1)C1CCN(c2nc3ccccc3n2Cc2ccc(F)cc2)CC1
CCOc1ccccc1N(CC)C(=O)c1ccc2c(=O)n3c(nc2c1)CCCCC3 -17.4%
CCOC(=O)c1cc2c(=O)n3ccccc3nc2n(CC(C)C)c1=NC(=O)C(C)Oc1ccccc1 (stereo not drawn) 15.1%
Cc1ccc(Nc2ccc(N3CCN(C(=O)c4ccc([N+](=O)[O-])cc4Cl)CC3)nn2)cc1 -28.6%
CCOc1ccc(NC(=O)CCS(=O)(=O)c2cc3c4c(c2)CCN4C(=O)CC3)cc1 -0.401%
CCc1ccccc1NC(=O)CCc1c(C)nc2cc(-c3ccccc3)nn2c1C -56.9%
Cc1nnc(N2CCN(C(=O)Nc3cc(F)ccc3F)CC2)c2nn(-c3ccc(Cl)cc3)c(C)c12 -51.3%
CC(=O)OC(C)OC(=O)C(C)c1ccc(-c2ccccc2)c(F)c1 (stereo not drawn) 2.64%
O=C(NC1CC(=O)N(c2ccc(Cl)cc2)C1)C(=O)c1c[nH]c2ccccc12 (stereo not drawn) -28.2%
